Data on 167 variants can be found in the RNAGym collection of RNA variant scans (doi:10.1093/nar/gkz1192).

Read counts are not given, so values of variants with three or more changes are uncertain.

B1: CPEB3 Ribozyme (parent)
chain: UAACAGGGGGCCACAGCAGAAGCGUUCACGUCGCAGCCCCUGUCAGAUUCUGGUGAAUCUGCGAAUUCUGCUGUAUAUCUC

Variants of B1 are the subject of this data set. Put plainly: self-cleavage, relative activity (ratio to wild type); higher = more cleavage; in vitro, sequencing. In outline:
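After error-prone PCR and barcoding, CPEB3 ribozyme mutant libraries were transcribed with T7 RNA polymerase at 37°C for 5 hours, then given 15 min with DNase I before an EDTA stop, and they cleaved during both steps. Reverse transcription with template switching preceded Illumina sequencing. Relative activity divides a variant's cleaved/total read fraction by the unmutated ribozyme's. At least 5 reads were required per variant, and three batches were averaged.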
Take C14A A15U U25C A35U U54A: the self-cleavage was 0.05.
As to C14U A15G U31C, the self-cleavage was determined as 0.42.
The figure for A13U C39G U43C U49C U74A is 0.08; for A13U G61C A64C it is 0.23.
Consider C14U A35G U49C A56G, for which the self-cleavage turned out to be 1.3.
A13U U25C U31C U48C: the self-cleavage was determined as 0.07.
The value for A13U A18G U31A A35U U54A G63A was 0.21.
The value for A13U U25C U69C U72C was 0.13.
On to A13U U31A U41A U72C, for which the self-cleavage came out at 0.21.
For the variant A13U U41C U49A A64G U67C, the self-cleavage came out at 0.25.
For the variant A13U A28C U43C, the self-cleavage stood at 0.33.
In the case of A13G U60A U78A, the self-cleavage is 0.28.
For A13G U60A U78C, the self-cleavage came out at 0.29.
A13G U51C A57C: the self-cleavage stood at 0.18.
With A13U A20G A45G A65G, the self-cleavage is 0.21.
On to A13U U25G C27U A56G A65G U67C U76C, for which the self-cleavage stood at 0.05.
On to A13U A15G A21G A35C A45U C62U, for which the self-cleavage was 0.07.
Take A13G U51A U60C U72C: the self-cleavage worked out at 0.23.
For the variant C14U A28G A47G G52U, the self-cleavage was found to be 0.88.
C14U A20G C38A A56G U66C C71A U80C: the self-cleavage was 0.04.
With A13U U25A U26A U51C, the self-cleavage is 0.18.
For A13U G22U U60A U72A, the self-cleavage is 0.05.
The value for A13U G24U A64G was 0.08.
For C14A U31C A64G, the self-cleavage came to 0.33.
Turning to A13U C34U U67C, the self-cleavage stood at 0.17.
The figure for A13U A45G U67A A75U is 0.57; for A13U U26C A28U U31C A56G it is 0.03; for A13U A20U C32A U60A U80C it is 0.06.
The value for C14U A20G G30A A77G was 0.16; that for A13U U26C A45U was 0.3.
Consider A13G U48C U51A U54C U72A, for which the self-cleavage amounted to 0.38.
Regarding A13U G30A C50G C62G, the self-cleavage stood at 0.09.
For A13U A57G U60C, the self-cleavage was determined as 0.41.
In the case of A13U U26C U43C U54C A56G A65G U80C, the self-cleavage worked out at 0.16.
On to C14U A35U U41C U60C A77U, for which the self-cleavage stood at 0.35.
As to C14U A35G U43C U51A, the self-cleavage is 1.31.
Turning to A13U A18U A20G A35G U41A U49C U72C, the self-cleavage was determined as 0.05.
The value for C14A A15C A45G U51C was 0.42; that for A13U C38U G55U A56U was 0.22.
The figure for A13U A20C U48C U72A is 0.06; for A13U A15G U25A G52C it is 0.34; for A13U A18U U43A U60C U74C it is 0.25.
In the case of A13U A20U U54C G61U A65G U69A, the self-cleavage came to 0.13.
Turning to A13U U26C A77G U78C, the self-cleavage amounted to 0.29.
A13U U48G U76A: the self-cleavage stood at 0.24.
Consider A13G U49C U67A U78A, for which the self-cleavage is 0.11.
For the variant A13U U26C U69C C71U A75G, the self-cleavage worked out at 0.09.
In the case of A13U U25G A35G, the self-cleavage is 0.89.
As for A13G U54C U60C A64G U72G, the self-cleavage amounted to 0.17.
Turning to A13U U26C U80A, the self-cleavage worked out at 0.67.
The value for A13U A21G C68G was 0.19; that for A13U A35G A45G G46A A64G U74C was 0.16; that for A13U A21G A28G C68A was 0.14.
Turning to A13U U31C G53C U69C, the self-cleavage was found to be 0.2.
As to A13U A20G A35G A45U U49C U74C, the self-cleavage is 0.11.
A13U A20G U48C U49C U54A U60A U66A: the self-cleavage amounted to 0.09.
Take A13U G22A U26C U72A: the self-cleavage stood at 0.13.
For the variant A13U U25C U31A G52A A65U A77G, the self-cleavage is 0.08.
C14U A35G A64G A65G U66C: the self-cleavage was 0.63.
With A13U A47G G70A U76A A77G, the self-cleavage came to 0.76.
As for A13U A15G U26A U72A, the self-cleavage amounted to 0.55.
Consider C14U A15G A35U, for which the self-cleavage was determined as 1.07.
For A13U A35G A47G A64G U80C, the self-cleavage turned out to be 1.3.
The value for A13G U66C U80C was 0.25.
The value for A13U A18G C34U C62U was 0.13.
Turning to A13U C23G U26C C39U U69G, the self-cleavage turned out to be 0.05.
On to A13U U31C A45U A56G, for which the self-cleavage stood at 0.09.
Regarding C14U A21G A47G, the self-cleavage is 0.91.
Consider A13U U25C A56G C71G C81U, for which the self-cleavage was found to be 0.04.
For the variant A13U C17A U43A U72C, the self-cleavage turned out to be 0.58.
As for A13U A21G U54C C62G U74A, the self-cleavage turned out to be 0.04.
As for A13U U26C U67C, the self-cleavage worked out at 0.16.
On to A13U A28U A64G C68G, for which the self-cleavage turned out to be 0.15.
Turning to A13U U49A U54C U60A U69C, the self-cleavage turned out to be 0.1.
The figure for A13U U26G A47G U54C A65G U80C is 0.08; for A13U A28G U43C it is 0.3.
The value for A13U G30A U66G was 0.17; that for A13U U26A A64U A75U was 0.25; that for C14U A20G U26A was 0.85.
Consider A13U U48C U58C, for which the self-cleavage was 0.45.
For the variant C14A A15G U26A A64G, the self-cleavage was 0.55.
Turning to A13U A28G A45G, the self-cleavage turned out to be 0.54.
As to C14G A15G A20C C79U, the self-cleavage turned out to be 0.13.
A13U A20U A47G U80C: the self-cleavage came to 0.49.
A13U A45G C62A: the self-cleavage amounted to 0.23.
Turning to A13U U25C A75G, the self-cleavage came out at 0.1.
Consider A13U U31C A47G U74C, for which the self-cleavage turned out to be 1.23.
The figure for A13U G36C U67A is 0.34; for A13U A15C C44A A45U U80C it is 0.3.
The figure for A13U A15U U31A A56U U72C is 0.17; for C14U A35G U51C it is 1.28.
For A13U A28G C38U A57G G63U U72A A77G, the self-cleavage is 0.32.
For A13U A65G U76A U80C, the self-cleavage was found to be 0.7.
As to A13U A18G U25C A28G U69A U74C, the self-cleavage turned out to be 0.02.
Turning to A13U A18G U58C C59U U72C, the self-cleavage is 0.2.
As for A13U U25C G33A U51C A77G, the self-cleavage came out at 0.06.
Turning to A13U A15U A28C, the self-cleavage turned out to be 0.18.
For A13U G16U U25C U51G, the self-cleavage turned out to be 0.08.
For the variant A13U A21U U26A U58C A64G U80C, the self-cleavage was 0.06.
Regarding C14U A45G A57G, the self-cleavage turned out to be 1.02.
In the case of C14A A45U A65G, the self-cleavage came to 0.12.
For A13U U43C U58C A65U, the self-cleavage worked out at 0.07.
Consider A13G U48C U66C U80A, for which the self-cleavage amounted to 0.11.
As to C14G A15G U31A U60C A65G U80C, the self-cleavage worked out at 0.08.
Consider C14G U25C U31A A35C C39A U78C, for which the self-cleavage turned out to be 0.16.
Consider A13U A18U A20G U43A U54C, for which the self-cleavage was determined as 0.35.
As to A13U C17U U51A, the self-cleavage amounted to 1.1.
Regarding A13U A18G U76A, the self-cleavage was determined as 0.28.
As for A13U U25C U60C, the self-cleavage was 0.1.
A13U A20U C23U U25C A56G: the self-cleavage stood at 0.19.
A13U U26C A35G G42A A56G U72C U78A: the self-cleavage amounted to 0.13.
The figure for C14A U43C U60A A77G is 0.19; for C14G A21G U26A U60C U66C U69C U76A it is 0.09; for A13U G36A U41C U51A it is 0.28.
For A13U G22C G46U U58C, the self-cleavage was found to be 0.1.
The value for C14A A20G C32A U43G was 0.05; that for A13U A15G U26A A65G was 0.27.
For C14A G33A C59A U69C, the self-cleavage is 0.11.
In the case of C14U A35G U58A U74G, the self-cleavage was 1.29.
For the variant A13U A21G U26C U51A U58C U69C, the self-cleavage is 0.14.
As to A13U U31A U41C A57G U72C, the self-cleavage is 0.26.
Turning to A13U A47U A56U U58A U74A, the self-cleavage was 0.75.
Regarding A13U C17U U25A A65G, the self-cleavage came to 0.15.
On to A13U U41C U72A U80C, for which the self-cleavage came to 1.2.
Turning to A13U U54C U58A, the self-cleavage worked out at 0.24.
Consider A13U A20G A47C, for which the self-cleavage is 0.24.
The value for A13U G33A A47G A64G C68G U78A was 0.11.
Consider A13U A15G A28U A64U U69A, for which the self-cleavage was found to be 0.13.
On to A13U U25A A56G U69C U80C, for which the self-cleavage was found to be 0.34.
Regarding A13U A45G A56G A64G, the self-cleavage was 0.54.
The figure for A13U U31A U51A U54C U67A is 0.2; for A13U A15G A20G U72C C79G it is 1.26; for C14U A28G U54C A65G it is 0.13.
The figure for C14A C23U U26A A45U U78C is 0.14; for A13U A21U U25A A35C U41C it is 0.1.
As to A13U U25C A28U A47G, the self-cleavage amounted to 0.09.
For A13U A20C A65G U74C, the self-cleavage was found to be 0.18.
Take A13G U51A U74C: the self-cleavage was 0.83.
Take A13U U26C A45G A56G A64G: the self-cleavage was determined as 0.37.
As for A13U U48C A57C U78C, the self-cleavage is 0.92.
In the case of A13U A18G A56G, the self-cleavage stood at 0.91.
Regarding A13U A15G U25C, the self-cleavage was 0.37.
A13U G36C G42A: the self-cleavage is 0.23.
As to A13G U49C G63A A75G, the self-cleavage came to 0.37.
Take A13G U48C U69A U80C: the self-cleavage amounted to 0.14.
The value for A13U U26C G52A U78C was 0.63; that for A13U A28G A64G C81U was 0.84.
As to A13U A45C A57G, the self-cleavage stood at 0.11.
Consider A13U A15G A35U C50A U69C, for which the self-cleavage was 0.16.
Turning to A13U G24A U31G C40G A57G A64U U66C, the self-cleavage was determined as 0.07.
In the case of A13U U25C A28G U58C A64G U69C U80A, the self-cleavage worked out at 0.06.
As to A13U A65U U80A, the self-cleavage came to 0.22.
With A13U A20G A21G U26C G30A U69A, the self-cleavage was determined as 0.13.
The figure for A13U A35G C39U is 1.28; for C14A G19C A65G it is 0.13.
In the case of C14U A35G G70A, the self-cleavage amounted to 1.19.
The figure for A13G U49C A56U is 0.2.
As to A13U A45G U51G U74A, the self-cleavage was 1.1.
Consider A13U C29U U67A A77G, for which the self-cleavage was 0.26.
The value for A13U A15G A47G A64G A75G was 0.53; that for A13U A20G A45U A57U U78A was 0.13; that for C14G A15G U72C A77G U78A was 1.27.
On to C14U A15G G22U U26C C59G, for which the self-cleavage is 0.24.
A13U A15G A28U U41A U69A: the self-cleavage amounted to 0.2.
As for A13U G61U U78C, the self-cleavage amounted to 0.14.
With A13U U26G A28G U43C, the self-cleavage amounted to 0.57.
On to A13U A20G U66C, for which the self-cleavage came to 0.31.
